# PubChem BioAssay AID651820 (National Center for Advancing Translational Sciences (NCATS), 2012)
# The whole screen tested about 340,000 compounds, of which about 12,000 (3.5%) were called active. The shares of active, inactive and inconclusive entries below differ from those in the screen. Calls come from the whole dose curve; as a rule, active = well fitted inhibition curve with a large enough effect; inconclusive = small, poorly fitted or top-dose-only effect, or another doubt; inactive = no such curve, though single readings can be large or run the other way. Potencies of inconclusive entries are left out as doubtful fits.
# Experiment: qHTS Assay for Inhibitors of Hepatitis C Virus (HCV)
# Settings: Huh7.5.1 HCVcc-Cre (HCVcc is cell-culture hepatitis C virus) infection, luciferase reporter, 44 h; activity change, negative = inhibition: at 41.8 µM (top of the series)
# Method in brief: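 Infectious HCV cell culture screen: compound-treated cells (1,000/well, pre-plated 4 h) are infected with HCVcc-Cre at roughly 0.5 moi and grown 44 h. Infection is quantified by luciferase signal after 15 min substrate incubation at room temperature.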
# % is set by controls: 0 for no effect and ±100 for the full control effect; potency is the fitted concentration of half-maximal effect; tags give direction and shape of the fitted curve.
SMILES,Potency,"activity change, negative = inhibition"
COc1ccc(-c2c(C#N)c(N)nc3c2CCC3)cc1,"inconclusive [inhibitor, single point]",
CC(C)(C)c1ccc(S(=O)(=O)N2CCCC2C(=O)NC2=NCCS2)cc1 (configuration not stated),,inactive: 19.1%
COCC(=O)NC1CCN(S(=O)(=O)c2cccc(C(C)=O)c2)CC1,,inactive: 20.1%
Cc1ccccc1Nc1nnc(SCC(=O)NC2CCCc3ccccc32)s1 (configuration not stated),,inactive: -31.1%
Cc1ccc(C(=O)CSc2ncnc3sc4c(c23)CCC(C)C4)cc1 (configuration not stated),"inconclusive [inhibitor, single point]",
O=C(Nc1ccc(S(=O)(=O)N2CCCC2)cc1)c1ccc(OCC2CCCO2)cc1 (configuration not stated),active: 11.2 µM,
O=C(CSc1nnc(Cc2cccs2)n1Cc1ccco1)Nc1cc(Cl)cc(Cl)c1,"inconclusive [inhibitor, full curve, poor fit]",
COc1ccc(NC(=O)CCc2ccccc2)cc1NC(=O)c1ccco1,"inconclusive [inhibitor, single point]",
O=C(CNc1cccc(Cl)c1)NNC(=S)NCc1ccccc1,"inconclusive [inhibitor, single point]",
CCOc1ccc(C(=O)NCC(=O)N2CC=C(c3ccccc3)CC2)cc1OCC,"inconclusive [inhibitor, full curve, poor fit]",
CN1CCC(N(C)C(=O)c2ccc(Cl)c(S(=O)(=O)Nc3cc(Cl)ccc3Cl)c2)CC1,,inactive: 10.6%
O=C1c2ccccc2-c2onc3ccc(Oc4ccccc4)c1c23,"inconclusive [inhibitor, single point]",
CCOC(=O)[C@@H]1[C@H]2COc3ccc(Br)cc3[C@@H]2N2C(=O)N(c3ccc(F)cc3)C(=O)[C@@]12C,"inconclusive [inhibitor, partial curve]",
NC(=O)C1CCN(c2ccc(S(=O)(=O)N3CCC(Cc4ccccc4)CC3)cn2)CC1,"inconclusive [inhibitor, partial curve]",
Cc1ccsc1C(=O)Nc1cc(Cl)ccc1-n1cncn1,active: 7.08 µM,
Cc1ccccc1-c1nnc(SCC#N)o1,,inactive: 1.36%
CC1(C)CC(=O)C/C(=N/NC(=O)COc2ccc3ccccc3c2Br)C1,"inconclusive [inhibitor, single point]",
CN1CCN(C(c2ccc(Br)cc2)c2cc(Cl)c3cccnc3c2O)CC1 (configuration not stated),active: 7.94 µM,
Cc1cccc([C@@H]2[C@@H]3C(=O)N(Cc4ccccc4)C(=O)[C@@H]3[C@]3(C)C(=O)N(c4ccc(C(F)(F)F)cc4)C(=O)N23)c1,"inconclusive [inhibitor, full curve]",
COc1ccc(N=C2SC(C(=O)Nc3ccc(F)cc3)CC(=O)N2C)cc1 (configuration not stated),"inconclusive [inhibitor, single point]",
O=C(O)CC(NC(=O)C1CCCCC1)c1cc([N+](=O)[O-])ccc1Cl (configuration not stated),,inactive: 3.53%
COC(=O)c1c(C(=O)OC)c(-c2ccc(OC)cc2)n2c1CCC2,,inactive: -17.7%
O=C(CC1CCCCC1)NCc1nc(-c2ccccc2)no1,,inactive: 10.1%

SMILES,Potency,"activity change, negative = inhibition"
Cc1cc(C)cc(NC(=O)/C=C/c2ccc([N+](=O)[O-])s2)c1,"inconclusive [inhibitor, full curve]",
CN1CCN(CC(=O)Nc2c(C(=O)C3CC3)oc3ccccc23)CC1,"inconclusive [inhibitor, partial curve]",
COc1ccc(N2CCN(C(=O)c3cn(C4CCCC4)c(=O)c4c3c3ccccc3n4C)CC2)cc1,"inconclusive [inhibitor, partial curve]",
COc1ccc(N2CC(C(=O)NCCN3C(=O)S/C(=C\c4cccnc4)C3=O)CC2=O)c(OC)c1 (configuration not stated),"inconclusive [inhibitor, single point]",
Cc1cccc(C(=O)N(CCc2ccccc2)Cc2ccccc2)c1[N+](=O)[O-],"inconclusive [inhibitor, single point]",
COc1ccc2c(c1)-c1c(ssc1=S)C(C)(C)N2S(=O)(=O)c1ccc(C)cc1,"inconclusive [inhibitor, partial curve]",
CCN1CCN(S(=O)(=O)c2cnc(Cl)c(Br)c2)CC1,"inconclusive [inhibitor, single point]",
COc1ccc(CNC(=O)C(c2ccncc2)N(C(=O)Cc2cccs2)c2cccc(C)c2)cc1 (configuration not stated),,inactive: -3.56%
C=CCC[C@H](Cc1ccc(F)cc1)C(=O)OC[C@@H](C)NC(=O)[C@H](CC=C)CC(=O)NCCO,"inconclusive [inhibitor, single point]",
COc1cccc(Cn2c(-c3nonc3N)nc3ccccc32)c1,"inconclusive [inhibitor, partial curve]",
O=C(C1CCN(C2CCN(C/C(Cl)=C/c3ccccc3)CC2)CC1)N1CCOCC1,"inconclusive [inhibitor, single point]",
CCc1ccccc1N(CC)C(=O)c1cn(CC)c(=O)c2cc(OC)c(OC)cc12,"inconclusive [inhibitor, partial curve, poor fit]",
CCOC(=O)c1cc(-c2ccccc2C)nn1CC1CC(c2ccc(OC)cc2)=NO1 (configuration not stated),"inconclusive [inhibitor, full curve, poor fit]",
CCCn1c(C)cc(C(=O)CSc2nc3nc(C)cc(C)n3n2)c1C,"inconclusive [inhibitor, single point]",
O=c1ccc(-c2ccc(S(=O)(=O)Nc3ccc(F)cc3)o2)n[nH]1,,inactive: 16.7%
CCS(=O)(=O)c1ccc(O)c(NC(=O)NC2CCCCC2)c1,"inconclusive [inhibitor, single point]",
CC(=O)N1CC(C)Sc2ccc(S(=O)(=O)NCCc3ccc(C)cc3)cc21 (configuration not stated),active: 11.2 µM,
Cc1cc2ccccc2n1CCNC(=O)COc1ccccc1,"inconclusive [inhibitor, single point]",
N#CC(=C1CCCC1)c1nc(-c2ccccc2O)cs1,"inconclusive [inhibitor, full curve]",
O[C@@H]([C@H](O)[C@H](O)CBr)[C@H](O)CBr,,inactive: 2.86%
COc1ccc(-c2[nH]c(-c3ccc(C)cc3)nc2SCC(=O)NC2CCCC2)cc1,"inconclusive [inhibitor, single point]",
CC(Sc1nnc(-c2ccc(Cl)cc2Cl)n1Cc1ccccc1)C(=O)Nc1nccs1 (configuration not stated),"inconclusive [inhibitor, single point]",
CCc1ccc(-c2cc3c(=O)n(CC(=O)NCCCN4CCN(Cc5ccccc5)CC4)nc(C)n3n2)cc1,"inconclusive [inhibitor, single point]",

SMILES,Potency,"activity change, negative = inhibition"
COc1ccc(CNC(=O)C2CCN(c3nc(-c4ccccc4)nc4c3CCC4)CC2)cc1,"inconclusive [inhibitor, partial curve]",
Cn1c(SCC(=O)c2cc3ccccc3o2)nnc1-c1ccccc1,"inconclusive [inhibitor, single point]",
CC1CC(C)CN(C(=O)COC(=O)COc2ccc(C#N)cc2)C1 (configuration not stated),"inconclusive [inhibitor, single point]",
COc1ccc(NC(=O)CC(c2ccc(F)cc2)c2ccc(OC(C)C)cc2)cc1 (configuration not stated),"inconclusive [inhibitor, full curve]",
COCc1cc(C)nc(SCc2ccc(Cl)cc2)c1C#N,,inactive: -15.8%
O=C(Nc1ccccc1)Nc1ccc(Br)c(Cl)c1,active: 12.6 µM,
COc1cc(C(=O)CCc2ccc3c(c2)OCO3)cc(OC)c1OC,active: 14.1 µM,
Cn1/c(=N\NC(=O)c2ccccc2Cl)sc2ccccc21,,inactive: 7.3%
CC(C)(C)NC(=O)CSc1nc(-c2ccccc2)c(-c2ccccc2)[nH]1,"inconclusive [inhibitor, partial curve]",
COc1ccc(NC(=O)Nc2cccc3c2O[C@H](CN(C)Cc2ccc(-c4ccccc4)cc2)[C@@H](C)CN([C@H](C)CO)C3=O)cc1,"inconclusive [inhibitor, single point]",
Cc1onc(-c2c(Cl)cccc2Cl)c1-c1nnc(-c2ccc(Cl)cc2)o1,active: 17.8 µM,
CCCCCC1CC(CC#CCN2CCOCC2)C(=O)O1 (configuration not stated),,inactive: -8.5%
FC(F)(F)c1ccccc1/C=N/n1c(COc2ccccc2)n[nH]c1=S,,inactive: 0.519%
CC(=O)Nc1ccc(-c2csc(Nc3ccc(Cl)cn3)n2)cc1,"inconclusive [inhibitor, partial curve]",
COc1ccc(C2CC(c3ccc4ccccc4c3)=NN2C(=O)CNC2CCCCC2)cc1 (configuration not stated),"inconclusive [inhibitor, single point]",
Cc1ccc(-c2nc(CSCC(=O)Nc3cc(C)on3)c(C)o2)cc1,"inconclusive [inhibitor, partial curve]",
CCN(CC)c1ccc(C=Nc2cccc(S(=O)(=O)N3CCOCC3)c2)c(O)c1,,inactive: -14.1%
COc1ccc(Cc2noc(-c3ccc([N+](=O)[O-])cc3)n2)cc1OC,"inconclusive [inhibitor, single point]",
CC(C(=O)N1CCc2ccccc21)N1CCN(S(=O)(=O)c2ccc3c(c2)OCCCO3)CC1 (configuration not stated),"inconclusive [inhibitor, single point]",
CC1CCC/C(=C(\C#N)c2nc(-c3cc4ccccc4oc3=O)cs2)C1 (configuration not stated),"inconclusive [inhibitor, partial curve]",
CCN(CC)c1ccc(-c2nn3c(-c4ccccc4OC)nnc3s2)cc1,"inconclusive [inhibitor, full curve, poor fit]",
